# Reference: the supplement of paper PMC12217912
# Some of the results follow. Sequences were assembled here from the parent chain. Inactive controls read about 0.05.
# B1: TEV protease; numbered along this chain (parent)
# chain: MGESLFKGPRDYNPISSSICHLTNESDGHTTSLYGIGFGPFIITNKHLFRRNNGTLVVQSLHGVFKVKDTTTLQQHLVDGRDMIIIRMPKDFPPFPQKLKFREPQREERICLVTTNFQTKSMSSMVSDTSCTFPSGDGIFWKHWIQTKDGQCGSPLVSTRDGFIVGIHSASNFTNTNNYFTSVPKNFMELLTNQEAQQWVSGWRLNADSVLWGGHKVFMVKPEEPFQPVKEATQL
# Variants of: B1
# Test: raw area under fraction-flipped curve 0-4 h after induction (AUC4h, not background-subtracted), DNA-recorder readout of cleavage of the substrate (dimensionless); higher = more cleavage of the substrate by the protease variant
# Conditions: temperature: 34 °C; time window: 0-4 h after rhamnose induction
# Description: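 In vivo DNA recorder in E. coli TOP10(DE3) ΔrhaA at 34 °C. Each TEVp single-site mutant (parent TEVp 0) is paired with a single-site variant of the 7-mer TEVs (canonical ENLYFQ|S). The substrate sits between flexible linkers in a Bxb1-sfGFP-TEVs-SsrA fusion, so cleavage stabilises Bxb1 and speeds flipping of a recombination array, read by NGS. The value is the raw area under the fraction-flipped curve over 0-4 h after rhamnose induction (AUC4h), with ≥20 reads per time point. It is not background-subtracted; inactive controls average about 0.047.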
# 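Further: Bxb1 expression induced with 0.2% (w/v) L-rhamnose at OD600 near 0.5, cultures sampled hourly, flipped fraction per protease–substrate barcode pair counted by paired-end Illumina sequencing.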
Variant,area with substrate ENLYAQS,area with substrate ENLYDQS,area with substrate ENLYEQS,area with substrate ENLYGQS,area with substrate ENLYHQS,area with substrate ENLYKQS,area with substrate ENLYMQS,area with substrate ENLYNQS,area with substrate ENLYQQS,area with substrate ENLYRQS,area with substrate ENLYSQS,area with substrate ENLYWQS,area with substrate ENLYIQS,area with substrate ENLYLQS,area with substrate ENLYPQS,area with substrate ENLYVQS,area with substrate ENLYCQS,area with substrate ENLYTQS,area with substrate ENLYYQS
MGESLFKGPRDYNPISSSICHLTNESDGHTTSLYGIGFGPFIITNKHLFRRNNGTLVVQSLHGVFKVKDTTTLQQHLVDGRDMIIIRMPKDFPPFPQKLKFREPQREERICLVTTNFQTKSMSSMVSNTSCTFPSGDGIFWKHWIQTKDGQCGSPLVSTRDGFIVGIHSASNFTNTNNYFTSVPKNFMELLTNQEAQQWVSGWRLNADSVLWGGHKVFMVKPEEPFQPVKEATQL [D128N],0.082,0.0744,0.0684,0.0617,0.0756,0.0716,0.0906,0.06,0.0629,0.0613,0.08,0.0731,,,,,,,
MGESLFKGPRDYNPISSSICHLTNESDGHTTSLYGIGFGPFIITNKHLFRRNNGTLVVQSLHGVFKVKDTTTLQQHLVDGRDMIIIRMPKDFPPFPQKLKFREPQREERICLVTTNFQTKSMSSMVSITSCTFPSGDGIFWKHWIQTKDGQCGSPLVSTRDGFIVGIHSASNFTNTNNYFTSVPKNFMELLTNQEAQQWVSGWRLNADSVLWGGHKVFMVKPEEPFQPVKEATQL [D128I],0.0779,0.0911,0.0574,,0.0896,0.0619,0.134,0.0705,0.1,0.0648,0.0782,0.096,0.127,0.122,0.083,0.144,,,
MGESLFKGPRDYNPISSSICHLTNESDGHTTSLYGIGFGPFIITNKHLFRRNNGTLVVQSLHGVFKVKDTTTLQQHLVDGRDMIIIRMPKDFPPFPQKLKFREPQREERICLVTTNFQTKSMSSMVSDTSCTFPSGDGIFWGHWIQTKDGQCGSPLVSTRDGFIVGIHSASNFTNTNNYFTSVPKNFMELLTNQEAQQWVSGWRLNADSVLWGGHKVFMVKPEEPFQPVKEATQL [K142G],0.0674,0.0578,0.0671,0.0479,0.0733,0.0672,0.0651,0.0617,0.062,0.061,,,0.111,0.0608,0.0666,0.0915,0.0687,0.0707,0.0576
MGESLFKGPRDYNPISSSICHLTNESDGHTTSLYGIGFGPFIITNKHLFRRNNGTLVVQSLHGVFKVKDTTTLQQHLVDGRDMIIIRMPKDFPPFPQKLKFREPQREERICLVTTNFQTKSMSSMVSDTSCTFPSRDGIFWKHWIQTKDGQCGSPLVSTRDGFIVGIHSASNFTNTNNYFTSVPKNFMELLTNQEAQQWVSGWRLNADSVLWGGHKVFMVKPEEPFQPVKEATQL [G136R],0.0787,0.0549,0.0569,,0.0714,0.0131,0.08,0.0683,0.0457,0.0586,0.0839,0.0738,0.0767,,0.0754,0.108,0.102,0.0971,0.0572
MGESLFKGPRDYNPISSSICHLTNESDGHTTSLYGIGFGPFIITNKHLFRRNNGTLVVQSLHGVFKVKDTTTLQQHLVDGRDMIIIRMPKDFPPFPQKLKFREPQREERICLVTTNFQTKSMSSMVSDTSCTFPSWDGIFWKHWIQTKDGQCGSPLVSTRDGFIVGIHSASNFTNTNNYFTSVPKNFMELLTNQEAQQWVSGWRLNADSVLWGGHKVFMVKPEEPFQPVKEATQL [G136W],0.0605,0.061,0.075,0.0618,0.0549,0.0588,0.0707,0.0555,0.0738,0.0629,0.084,0.0773,0.104,0.076,0.0676,0.0879,,0.0639,
MGESLFKGPRDYNPISSSICHLTNESDGHTTSLYGIGFGPFIITNKHLFRRNNGTLVVQSLHGVFKVKDTTTLQQHLVDGRDMIIIRMPKDFPPFPQKLKFREPQREERICLVTTNFQTKSMSSMVSDTSCTFPSTDGIFWKHWIQTKDGQCGSPLVSTRDGFIVGIHSASNFTNTNNYFTSVPKNFMELLTNQEAQQWVSGWRLNADSVLWGGHKVFMVKPEEPFQPVKEATQL [G136T],0.08,0.0575,0.0678,0.0654,0.0697,0.0781,0.0695,0.0621,0.0552,0.0717,0.0705,0.0704,0.104,,0.0755,0.1,0.0833,0.0657,0.0572
MGESLFKGPRDYNPISSSICHLTNESDGHTTSLYGIGFGPFIITNKHLFRRNNGTLVVQSLHGVFKVKDTTTLQQHLVDGRDMIIIRMPKDFPPFPQKLKFREPQREERICLVTTNFQTKSMSSMVSDTSCTFHSGDGIFWKHWIQTKDGQCGSPLVSTRDGFIVGIHSASNFTNTNNYFTSVPKNFMELLTNQEAQQWVSGWRLNADSVLWGGHKVFMVKPEEPFQPVKEATQL [P134H],0.0692,0.0683,0.0655,0.0613,0.0445,0.065,0.0706,0.0634,0.0682,0.0646,0.0662,0.0634,0.0876,,0.074,0.0839,0.0728,0.0548,0.0535
MGESLFKGPRDYNPISSSICHLTNESDGHTTSLYGIGFGPFIITNKHLFRRNNGTLVVQSLHGVFKVKDTTTLQQHLVDGRDMIIIRMPKDFPPFPQKLKFREPQREERICLVTTNFQTKSMSSMVSDTSCTFPSGDGIFWKHWIQTKDGQKGSPLVSTRDGFIVGIHSASNFTNTNNYFTSVPKNFMELLTNQEAQQWVSGWRLNADSVLWGGHKVFMVKPEEPFQPVKEATQL [C152K],0.0421,0.0738,,0.0622,0.067,0.0541,0.0532,,0.0581,0.0575,0.0515,,0.0613,,0.0423,0.0591,,,
MGESLFKGPRDYNPISSSICHLTNESDGHTTSLYGIGFGPFIITNKHLFRRNNGTLVVQSLHGVFKVKDTTTLQQHLVDGRDMIIIRMPKDFPPFPQKLKFREPQREERICLVTTNFQTKSMSSMVSDTSCTFPSGDGIFWKHWIQTKDGQEGSPLVSTRDGFIVGIHSASNFTNTNNYFTSVPKNFMELLTNQEAQQWVSGWRLNADSVLWGGHKVFMVKPEEPFQPVKEATQL [C152E],0.0579,0.0698,0.0687,0.0585,0.0554,0.0528,0.0669,0.0695,0.0588,0.0625,0.067,0.0908,0.0521,0.0724,0.0638,0.0598,0.0691,0.065,0.0553
MGESLFKGPRDYNPISSSICHLTNESDGHTTSLYGIGFGPFIITNKHLFRRNNGTLVVQSLHGVFKVKDTTTLQQHLVDGRDMIIIRMPKDFPPFPQKLKFREPQREERICLVTTNFQTKSMSSMVSDTSCTFPSGDGIFWKHWIQTKDGQAGSPLVSTRDGFIVGIHSASNFTNTNNYFTSVPKNFMELLTNQEAQQWVSGWRLNADSVLWGGHKVFMVKPEEPFQPVKEATQL [C152A],0.0695,0.0617,0.0558,0.0586,0.0527,,,0.0657,0.0539,0.0578,,0.0579,0.0704,,,0.0612,0.061,0.145,
MGESLFKGPRDYNPISSSICHLTNESDGHTTSLYGIGFGPFIITNKHLFRRNNGTLVVQSLHGVFKVKDTTTLQQHLVDGRDMIIIRMPKDFPPFPQKLKFREPQREERICLVTTNFQTKSMSSMVSDTSCTFPSGDGIFWKHWIQTKDGQFGSPLVSTRDGFIVGIHSASNFTNTNNYFTSVPKNFMELLTNQEAQQWVSGWRLNADSVLWGGHKVFMVKPEEPFQPVKEATQL [C152F],0.0617,0.062,0.0673,0.0573,0.0595,0.0646,0.0522,0.0495,0.0577,0.0581,0.0634,0.0642,0.0511,0.0631,0.0579,0.0636,0.0567,0.0448,
MGESLFKGPRDYNPISSSICHLTNESDGHTTSLYGIGFGPFIITNKHLFRRNNGTLVVQSLHGVFKVKDTTTLQQHLVDGRDMIIIRMPKDFPPFPQKLKFREPQREERICLVTTNFQTKSMSSMVSDTSCTFPSGDGIFWKHWIQTKDGQDGSPLVSTRDGFIVGIHSASNFTNTNNYFTSVPKNFMELLTNQEAQQWVSGWRLNADSVLWGGHKVFMVKPEEPFQPVKEATQL [C152D],0.0655,,0.0584,0.0666,,,0.0616,0.0579,0.0729,,0.0907,,,0.054,0.054,0.052,0.0574,0.0464,
MGESLFKGPRDYNPISSSICHLTNESDGHTTSLYGIGFGPFIITNKHLFRRNNGTLVVQSLHGVFKVKDTTTLQQHLVDGRDMIIIRMPKDFPPFPQKLKFREPQREERICLVTTNFQTKSMSSMVSDTSCTFPSGDGIFWKHWIQTKDWQCGSPLVSTRDGFIVGIHSASNFTNTNNYFTSVPKNFMELLTNQEAQQWVSGWRLNADSVLWGGHKVFMVKPEEPFQPVKEATQL [G150W],0.06,0.0602,0.0576,0.0666,0.0608,0.0586,0.0525,0.0615,0.0691,0.0667,0.0676,0.0588,0.0385,,0.0519,0.0583,0.0598,0.0623,0.0499
MGESLFKGPRDYNPISSSICHLTNESDGHTTSLYGIGFGPFIITNKHLFRRNNGTLVVQSLHGVFKVKDTTTLQQHLVDGRDMIIIRMPKDFPPFPQKLKFREPQREERICLVTTNFQTKSMSSMVSDTSCTFPSGDGIFWKHWIQTKDEQCGSPLVSTRDGFIVGIHSASNFTNTNNYFTSVPKNFMELLTNQEAQQWVSGWRLNADSVLWGGHKVFMVKPEEPFQPVKEATQL [G150E],0.0612,0.0581,0.0651,0.0482,0.0669,0.0578,0.0551,0.0576,0.0599,0.0592,0.0267,0.064,0.0614,0.0538,0.0581,0.0557,0.0634,0.0683,0.0517
MGESLFKGPRDYNPISSSICHLTNESDGHTTSLYGIGFGPFIITNKHLFRRNNGTLVVQSLHGVFKVKDTTTLQQHLVDGRDMIIIRMPKDFPPFPQKLKFREPQREERICLVTTNFQTKSMSSMVSDTSCTFPSGDGIFWKHWIQTKMGQCGSPLVSTRDGFIVGIHSASNFTNTNNYFTSVPKNFMELLTNQEAQQWVSGWRLNADSVLWGGHKVFMVKPEEPFQPVKEATQL [D149M],0.0512,0.0591,0.0514,0.0561,0.0564,0.078,0.0719,0.0584,,0.0628,0.0672,0.0795,0.0985,,0.0619,0.0983,0.0798,,
MGESLFKGPRDYNPISSSICHLTNESDGHTTSLYGIGFGPFIITNKHLFRRNNGTLVVQSLHGVFKVKDTTTLQQHLVDGRDMIIIRMPKDFPPFPQKLKFREPQREERICLVTTNFQTKSMSSMVSDTSCTFPSGDGIFWKHNIQTKDGQCGSPLVSTRDGFIVGIHSASNFTNTNNYFTSVPKNFMELLTNQEAQQWVSGWRLNADSVLWGGHKVFMVKPEEPFQPVKEATQL [W144N],0.0761,0.0629,0.0678,0.0672,0.0591,0.0645,0.0719,0.0634,,0.0619,0.0708,0.0623,0.0985,,0.0617,0.0851,,0.0812,0.0473
MGESLFKGPRDYNPISSSICHLTNESDGHTTSLYGIGFGPFIITNKHLFRRNNGTLVVQSLHGVFKVKDTTTLQQHLVDGRDMIIIRMPKDFPPFPQKLKFREPQREERICLVTTNFQTKSMSSMVSDTSCTFPSGDGIFWKHYIQTKDGQCGSPLVSTRDGFIVGIHSASNFTNTNNYFTSVPKNFMELLTNQEAQQWVSGWRLNADSVLWGGHKVFMVKPEEPFQPVKEATQL [W144Y],0.0714,0.0735,0.0666,0.0696,0.0616,0.079,0.0828,0.073,,0.0654,0.0561,0.0805,0.102,0.0607,0.0843,0.0786,0.0699,,
